Assay results: the supplement of paper PMC10126150
Sequences with one replicate were seen in a single cluster, so their values are uncertain.

System: ATP
Test: switch fluorescence ratio, 500 uM ATP over buffer (Cy3 cluster intensity, sum of 5 cycles each) (fold (ratio)); higher = stronger signal-on switching upon ATP binding; sequences stand for … in TCGTCGGCAGCGTCAGATGTGTATAAGAGACAGTTTTTTTTTTTTTTTTTTTTTTTTT…TC
Conditions: aptamer strand: ATP DNA aptamer (quencher-CACCTGGGGGAGTATTGCGGAGGAAGG + anchor), 100 nM annealed; ATP concentration: 500 uM; one replicate
How it was run: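 The quencher-labelled ATP aptamer, at 100 nM, was annealed to Cy3-labelled switching-strand clusters on a modified Illumina MiSeq flow-cell. The clusters were imaged in selection buffer, then after 15 min with 500 uM ATP at 22 °C, and this buffer/ATP cycle ran five times with NaOH stripping and re-annealing between runs. Per-cluster fluorescence ratios, summed target-cycle over summed buffer-cycle Cy3 intensity, were averaged per switch-domain sequence. Clusters outside 100-1000 RFU were excluded.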
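Note: ATP exposure 15 min at 22 °C before imaging.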

Row | Sequence | switch fluorescence ratio
1 | TTGGTATTGC | 0.988
2 | TTGGTCAGCT | 0.987
3 | TTGGTCCTTG | 1
4 | TTGGTCGTGT | 0.983
5 | TTGGTCTGTT | 0.976
6 | TTGGTGAATC | 0.979
7 | TTGGTGACAT | 0.993
8 | TTGGTTCAA | 0.99
9 | TTGGTTCAT | 1.03
10 | TTGGTTCTTC | 1.61
11 | TTGTAATACG | 1.17
12 | TTGTACTTCA | 1.08
13 | TTGTAGACGG | 0.99
14 | TTGTAGGAAA | 0.971
15 | TTGTAGGCGT | 0.968
16 | TTGTATCCTA | 0.978
17 | TTGTATCGCC | 1.01
18 | TTGTATGAT | 0.981
19 | TTGTATGCAA | 1.04
20 | TTGTATGGCC | 0.964
21 | TTGTATGTT | 1
22 | TTGTCATACC | 1.05
23 | TTGTCGAGA | 1.01
24 | TTGTCGTCCT | 1.02
25 | TTGTCTGGGA | 0.985
26 | TTGTGAAAGC | 1.03

Row | Sequence | switch fluorescence ratio
27 | TTGTGAATTG | 0.966
28 | TTGTGAGGTA | 0.986
29 | TTGTGCAAG | 1.02
30 | TTGTGCTAGC | 0.975
31 | TTGTGGAAAG | 1.02
32 | TTGTGGCTAC | 1.01
33 | TTGTGGGTGG | 0.994
34 | TTGTGTGAGG | 0.946
35 | TTGTGTTGCA | 0.966
36 | TTGTGTTGT | 1.02
37 | TTGTTAAGCT | 1
38 | TTGTTACGAT | 1.04
39 | TTGTTAGCTA | 1.01
40 | TTGTTATGCT | 1.02
41 | TTGTTCGTGG | 0.95
42 | TTGTTGATTC | 0.976
43 | TTGTTGGTGT | 1.01
44 | TTGTTTGGAG | 1.04
45 | TTGTTTGTC | 1.04
46 | TTTAAAGATA | 1.04
47 | TTTAAAGCTA | 1.03
48 | TTTAACCTTA | 1.14
49 | TTTAACTCTT | 1.05
50 | TTTAACTTCG | 0.994
51 | TTTAAGGAAG | 1
52 | TTTAAGGTTC | 1.35

Row | Sequence | switch fluorescence ratio
53 | TTTAAGTT | 0.915
54 | TTTAATAGC | 0.964
55 | TTTAATCCAA | 1.1
56 | TTTACAACGA | 1.04
57 | TTTACAAGAT | 1
58 | TTTACGCACC | 1.25
59 | TTTACGTTGT | 1.05
60 | TTTACTGCTC | 0.983
61 | TTTAGAAAC | 0.988
62 | TTTAGAAATG | 0.984
63 | TTTAGAAT | 0.985
64 | TTTAGACTTG | 1.02
65 | TTTAGAGGTT | 0.978
66 | TTTAGAGTCA | 1.01
67 | TTTAGATGTT | 1.01
68 | TTTAGCCGCG | 0.986
69 | TTTAGCCTCT | 0.967
70 | TTTAGCGGG | 1
71 | TTTAGGATGG | 0.997
72 | TTTAGGCAGT | 1.03
73 | TTTAGTAC | 1.08
74 | TTTAGTAGTA | 0.959
75 | TTTAGTCGTT | 0.98
76 | TTTAGTGACC | 1.02
77 | TTTAGTGTTA | 0.984
78 | TTTATACG | 1

Row | Sequence | switch fluorescence ratio
79 | TTTATATTAC | 1.08
80 | TTTATCCTGC | 1.04
81 | TTTATCGCCA | 1.02
82 | TTTATGATAT | 1.02
83 | TTTATGGTCA | 1.01
84 | TTTATTGCCT | 1.02
85 | TTTCAAAAA | 0.975
86 | TTTCAACCAG | 1.02
87 | TTTCAACCTG | 1.03
88 | TTTCACACCT | 1.29
89 | TTTCACCTCA | 1.39
90 | TTTCACGGAC | 1.58
91 | TTTCACTCCG | 1.39
92 | TTTCACTGA | 1.04
93 | TTTCACTGCT | 0.976
94 | TTTCAGGTAT | 1.02
95 | TTTCATCTA | 1.05
96 | TTTCCACGTC | 1.02
97 | TTTCCAG | 1.04
98 | TTTCCAGAAG | 0.977
99 | TTTCCAGGAA | 1.55
100 | TTTCCCCGTT | 1.09
101 | TTTCCCGAT | 1.37
